Test results: the antibiotic and cytotoxicity screens of Wong et al. (2023)
The list shows a part of the results.

System: S. aureus RN4220
Assay: growth inhibition call (relative growth <= 0.2)
Details: 50 µM

Growth inhibition call, inactive:
C[C@@H]1CN([C@@H](C)CO)C(=O)c2cc(NC(=O)CCN3CCOCC3)ccc2O[C@H]1CN(C)S(=O)(=O)c1cccs1
COc1ccc(S(=O)(=O)N(C)C[C@H]2OCc3cnnn3CCCC(=O)N([C@@H](C)CO)C[C@H]2C)cc1
C[C@H]1CCCCO[C@H](CN(C)Cc2ccncc2)[C@@H](C)CN([C@@H](C)CO)C(=O)c2cc(NC(=O)Nc3ccc(C(F)(F)F)cc3)ccc2O1
CO[C@H]1CN(C)C(=O)c2cc(NC(=O)CC(F)(F)F)ccc2OC[C@H](C)N(C(=O)C2CCOCC2)C[C@@H]1C
C[C@@H]1CN([C@@H](C)CO)C(=O)c2cc(NC(=O)Cn3cnnn3)ccc2O[C@H]1CN(C)S(=O)(=O)c1cccs1
CCS(=O)(=O)NCC[C@H]1CC[C@H](NS(=O)(=O)c2cccc(F)c2)[C@@H](CO)O1
C[C@@H]1CN([C@H](C)CO)C(=O)c2cc(NC(=O)c3ccccc3)ccc2O[C@@H](C)CCCCO[C@@H]1CN(C)Cc1ccc2c(c1)OCO2
C[C@@H]1CN([C@H](C)CO)C(=O)c2cc(NC(=O)c3ccncc3)ccc2O[C@@H](C)CCCCO[C@@H]1CN(C)C(=O)C1CCCCC1
O/N=C/c1ccccc1C(F)(F)F
C[C@@H]1CN([C@H](C)CO)S(=O)(=O)c2ccc(Br)cc2O[C@@H]1CN(C)S(=O)(=O)c1ccc(F)cc1
CC(C)NC(=O)N(C)C[C@@H]1Oc2ccc(NC(=O)C3CCCCC3)cc2C(=O)N([C@@H](C)CO)C[C@@H]1C
CC1(C)C(=O)C=CC2(C)C1CC(=O)C1(C)C2CCC2(C)C(c3ccoc3)OC(=O)C3OC321 (stereo not given)
COc1cccc(NC(=O)N(C)C[C@H]2Oc3ncc(C#Cc4cccnc4)cc3C(=O)N([C@@H](C)CO)C[C@@H]2C)c1
C[C@@H]1CN([C@@H](C)CO)C(=O)c2cccc(NC(=O)CCCCCC(=O)Nc3ccccc3N)c2O[C@@H]1CN(C)C(=O)Nc1ccc(F)cc1
C[C@@H]1CN([C@@H](C)CO)C(=O)c2cccc(NS(C)(=O)=O)c2O[C@@H]1CN(C)C(=O)Nc1ccc(F)cc1
C[C@H]1CN([C@@H](C)CO)C(=O)c2cc(Br)cnc2O[C@H]1CN(C)S(=O)(=O)c1ccccc1F
C[C@@H]1CN([C@@H](C)CO)C(=O)c2cc(-c3ccncc3)cnc2O[C@H]1CN(C)Cc1ccc(Oc2ccccc2)cc1
C[C@@H]1CN([C@H](C)CO)C(=O)c2cccc(NS(C)(=O)=O)c2O[C@H]1CN(C)Cc1ccc2c(c1)OCO2
CO[C@@H]1CN(C)C(=O)c2cc(NC(=O)Nc3ccc(Cl)cc3)ccc2OC[C@H](C)N(C(=O)Nc2c(C)noc2C)C[C@H]1C
C[C@@H]1CCCCO[C@@H](CN(C)S(=O)(=O)c2ccc(F)cc2)[C@@H](C)CN([C@H](C)CO)C(=O)c2cc(NC(=O)CCCCCC(=O)Nc3ccccc3N)ccc2O1
COc1ccc(CN(C)C[C@@H]2Oc3c(NC(=O)c4ccc(-c5nccs5)cc4)cccc3C(=O)N([C@H](C)CO)C[C@H]2C)cc1
CCC(=O)Nc1cccc([C@@H](CCc2ccc(OC)c(OC)c2)OC(=O)[C@@H]2CCCCN2C(=O)C(=O)C(C)(C)CC)c1
O=C(C1=C[C@H](C2CC2)C[C@H](OCc2ccc(CO)cc2)O1)N1CCN(Cc2ccc3c(c2)OCO3)CC1
C[C@@H]1CN([C@@H](C)CO)C(=O)c2cc(NC(=O)CCC(F)(F)F)ccc2O[C@H]1CN(C)Cc1ccc(C(F)(F)F)cc1
COc1ccc2c3c(n(c2c1)C)[C@@H](CO)N(C[C@]13CCN(CC1)C(=O)CN(C)C)C(=O)C1CCCCC1
C[C@@H]1CN([C@H](C)CO)C(=O)c2cc(NC(=O)NC3CCCCC3)ccc2O[C@@H](C)CCCCO[C@H]1CN(C)C(=O)C1CCCCC1
Cc1noc(C)c1NC(=O)Nc1ccc2c(c1)C(=O)N([C@H](C)CO)C[C@H](C)[C@H](CN(C)C(=O)Nc1ccc3c(c1)OCO3)OCCCC[C@H](C)O2
C[C@@H]1CN([C@H](C)CO)C(=O)c2cc(NS(=O)(=O)c3ccc(Cl)cc3)ccc2O[C@H]1CN(C)Cc1ccc(C(=O)Nc2ccccc2N)cc1
C[C@H]1CCCCO[C@H](CN(C)C(=O)CCC(F)(F)F)[C@@H](C)CN([C@@H](C)CO)C(=O)c2cc(NS(=O)(=O)c3ccc(Cl)cc3)ccc2O1
Cc1noc(C)c1NC(=O)Nc1ccc2c(c1)C(=O)N([C@@H](C)CO)C[C@H](C)[C@@H](CN(C)C(=O)c1ccccc1)OCCCC[C@@H](C)O2
CN1CCN(C(=O)C[C@@H]2C=C[C@@H](NC(=O)Nc3ccccc3F)[C@@H](CO)O2)CC1
C[C@@H]1CCCCO[C@@H](CN(C)Cc2ccccc2)[C@H](C)CN([C@@H](C)CO)C(=O)c2cc(NC(=O)CCC(F)(F)F)ccc2O1
Cc1noc(C)c1NC(=O)N(C)C[C@@H]1Oc2ccc(NC(=O)CCCN(C)C)cc2C(=O)N([C@H](C)CO)C[C@@H]1C
CC(C)CC#Cc1ccc2c(c1)O[C@H](CN(C)S(=O)(=O)c1ccc(F)cc1)[C@H](C)CN([C@H](C)CO)S2(=O)=O
COc1ccc2c3c(n(c2c1)C)[C@@H](CO)N(C[C@]13CN(C1)C(=O)C1CCOCC1)C(=O)C1CCOCC1
CC(C)NC(=O)N(C)C[C@@H]1Oc2cc(C#Cc3ccc(F)cc3)ccc2S(=O)(=O)N([C@H](C)CO)C[C@@H]1C
CSC1=NCCN1
C[C@@H]1CN([C@H](C)CO)C(=O)c2cccc(NC(=O)c3ccc(-c4nccs4)cc3)c2O[C@@H]1CN(C)C(=O)NC1CCCCC1
CC(C)CC#Cc1cnc2c(c1)C(=O)N([C@@H](C)CO)C[C@@H](C)[C@H](CN(C)C(=O)c1ccc3c(c1)OCO3)O2
CCCC#Cc1ccc2c(c1)O[C@@H](CN(C)S(=O)(=O)c1cccc(OC)c1)[C@H](C)CN([C@H](C)CO)S2(=O)=O
